Here are results for 25 compounds from ChEMBL document CHEMBL4888484, “Replenishing the malaria drug discovery pipeline: Screening and hit evaluation of the MMV Hit Generation Library 1 (HGL1) against asexual blood stage Plasmodium falciparum ,using a nano luciferase reporter read-out” (2022).

Among all 150,000 compounds or so, about 540 (0.36%) showed an effect of 50% or more. The list shows a part of the results.

For the experiment, the system named is Plasmodium falciparum. Put plainly: Primary screen in NF54 nanoGlo assay, in single point, at 2uM, 72h; a lower Z score goes with more inhibition. Type of experiment: functional, Erythrocyte. The note with it: timepoint 72 hour.
As to `CC(C)c1nccn1C1CN(C(=O)Nc2ccccc2)C1`, the “% Inhibition” value was -5% and the Z score was 0.65.
In the case of `Cc1cnc(N(C)Cc2ccncn2)nc1N(C)C`, the “% Inhibition” value is -10% and the Z score was 1.37.
For the compound `COC(=O)c1ccc(CNC(=O)c2ccc[nH]2)nc1C1CC1`, the “% Inhibition” value is given as 29% and the Z score is on record as -3.27.
For `CCc1cnccc1C(=O)OC[C@H]1CCCN1c1ccc(C)nn1`, the “% Inhibition” value is given as -8% and the Z score is given as 0.84.
As for `COC(=O)c1cc(CNC(=O)Cc2ccccc2C)cc(NC(=O)Cn2cccn2)c1`, the “% Inhibition” value is recorded as -13% and the Z score turned out to be 1.74.
With `CC[C@@H](C(=O)NCc1cccc(OC)c1)n1nc(C)c2nn(-c3ccccc3)c(C)c2c1=O`, the “% Inhibition” value was 7% and the Z score is -1.03.
As to `O=C(Cc1cnn(-c2ccccc2)c1)N1CCc2ccccc2C1`, the “% Inhibition” value is on record as 1% and the Z score is on record as -0.17.
Regarding `CCS(=O)(=O)NCc1cccnc1`, the “% Inhibition” value is -18% and the Z score is given as 1.81.
As to `O=C(NC(c1ccccc1)c1cccs1)C1CCCO1` (stereo not given), the “% Inhibition” value was -11% and the Z score is given as 1.57.
Consider `Cc1cnn(C(C)C(C)NC(C)c2nnc(C)o2)c1` (stereo not given), for which the “% Inhibition” value is given as -5% and the Z score is reported as 0.76.
As for `O=C(NC[C@H]1CCCN1c1nccs1)c1cccnc1`, the “% Inhibition” value is reported as -17% and the Z score is on record as 3.26.
Turning to `Cc1n[nH]c(=O)nc1Nc1ccc2c(c1)OCO2`, the “% Inhibition” value was -2% and the Z score was found to be 0.33.
Take `COCc1csc(C(=O)NCC2(CC#N)CC2)c1`: the “% Inhibition” value was determined as 2% and the Z score was -0.32.
On to `CCC(C)NC(=O)C1CC(C)N(Cc2ccn(C)c(=O)c2)c2ccccc21` (stereo not given), for which the “% Inhibition” value was -8% and the Z score is reported as 0.81.
For `Cc1cccc(S(=O)(=O)N2CC3CN(C(=O)c4ccco4)CC(C2)O3)c1`, in that order: -21% and 1.84.
For `CCOCCS(=O)(=O)N1C2CCC1CC(O)(Cc1ccc(F)cc1F)C2` (stereo not given), the “% Inhibition” value was -17% and the Z score came out at 1.91.
In the case of `CCN1C(=O)c2cc(NC(=O)c3cc(C)cc(C)c3)ccc2Oc2ccccc21`, the “% Inhibition” value is on record as -9% and the Z score is on record as 1.09.
`COC(=O)[C@@H](C)CN(Cc1ccccc1)Cc1ncc(-c2ccc(OC)cc2)o1`: the “% Inhibition” value stood at 0% and the Z score is 0.
For `COc1cc2c(cc1F)CN(C(=O)c1ccnnc1C)CC2`, in that order: -4% and 0.68.
Regarding `COCC1(CNC(=O)CN2CCOCC2)CCCC1`, the “% Inhibition” value is on record as -4% and the Z score is listed as 0.62.
In the case of `COc1ccc(NC(=O)[C@H](C(C)C)N(C)C)cn1`, the “% Inhibition” value is given as -12% and the Z score amounted to 2.53.
Turning to `O=C(N[C@@H](Cc1ccccc1)C(=O)OCc1ccc(Cl)cc1)OCc1ccccc1`, the “% Inhibition” value is listed as -7% and the Z score was determined as 1.
With `CC(C)(C)C(=O)N1CCC(COc2ccc(C#N)cc2Cl)CC1`, the “% Inhibition” value came to 6% and the Z score is -1.06.
With `CCc1nc2c(s1)[C@@H](N(C)CC1(CC(=O)O)CC1)CCC2`, the “% Inhibition” value is -7% and the Z score is on record as 0.89.
As to `CC(=O)Nc1c(C)cc(C)c(CNC(=O)COc2ccc3c(c2)OCO3)c1C`, the “% Inhibition” value is -6% and the Z score was determined as 0.94.
